Screen size: about 110,000 compounds; about 230 (0.21%) showed an effect of 50% or more. Some of the results follow.
Biological target: DPAP1 (Plasmodium falciparum, UniProt Q8IIJ9)
Test: primary screen, percent inhibition; read by cleavage of a fluorogenic dipeptide substrate; higher = more effect of the substance
Parameters: species or system P. falciparum D10 trophozoite lysates; single well
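Further: 30 min substrate incubation versus DMSO and 10 µM JCP410 controls.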

DPAP1, sequence (Q8IIJ9 whole entry, looked up): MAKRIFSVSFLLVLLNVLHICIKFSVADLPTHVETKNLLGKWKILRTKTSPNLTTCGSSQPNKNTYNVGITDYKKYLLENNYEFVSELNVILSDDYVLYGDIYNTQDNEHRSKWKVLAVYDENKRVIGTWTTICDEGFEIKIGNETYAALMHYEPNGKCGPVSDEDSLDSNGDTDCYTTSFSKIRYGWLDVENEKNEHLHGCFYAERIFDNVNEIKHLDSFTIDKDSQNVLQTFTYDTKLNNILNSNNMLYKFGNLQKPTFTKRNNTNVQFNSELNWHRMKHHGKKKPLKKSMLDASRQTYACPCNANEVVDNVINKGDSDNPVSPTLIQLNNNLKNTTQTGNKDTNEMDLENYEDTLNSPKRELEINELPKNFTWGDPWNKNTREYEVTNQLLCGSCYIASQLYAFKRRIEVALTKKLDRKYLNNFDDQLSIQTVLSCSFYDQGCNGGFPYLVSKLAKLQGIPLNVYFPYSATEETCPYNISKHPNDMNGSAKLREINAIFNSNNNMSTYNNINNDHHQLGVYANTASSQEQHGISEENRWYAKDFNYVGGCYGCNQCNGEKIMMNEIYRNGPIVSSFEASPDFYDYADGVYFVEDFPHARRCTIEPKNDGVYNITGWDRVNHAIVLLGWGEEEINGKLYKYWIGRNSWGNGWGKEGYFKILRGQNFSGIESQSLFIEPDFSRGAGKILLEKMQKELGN

Compound	% Inhibition @ 10 uM
COc1ccc2nc(NC(=O)CSc3nc4ccccc4o3)sc2c1	-3.49%
Cc1nn(C2CCOC(C)(C)C2)c2c1C(c1ccc(OCc3ccccc3)cc1)SCC(=O)N2 (stereo not drawn)	6.01%
Cc1cc(O)nc(-n2nc(C)cc2C)n1	-4.15%
COc1ccc(C(C)=O)cc1CSc1nnc(C(O)c2ccccc2)n1-c1ccccc1 (stereo not drawn)	0.503%
N#Cc1cn(CC(=O)N2CCCCCC2)c2ccc(Br)cc12	-0.105%
CCN(C(=O)CCc1ccccc1)c1nc(-c2ccccc2)cs1	-0.426%
COc1ccc2ccccc2c1/C=C1\N=C(c2ccc(F)cc2)OC1=O	-5.6%
CN1CCN(CC(=O)N2c3ccccc3C(C)(c3ccccc3)CC2(C)C)CC1 (stereo not drawn)	3.76%
Cc1oc2c(c(C)cc3oc(=O)cc(C)c32)c1C	5.35%
Cc1ccc(C(C)C)c(OCC(=O)Nc2cccc([N+](=O)[O-])c2)c1	-0.0267%
Cc1cccn2c(=O)c3cc(C#N)c(=O)n(-c4nccs4)c3nc12	1.12%
Cc1cc(C(F)(F)F)nn1C(=O)COc1ccccc1Br	-2.9%
N#Cc1c(-n2ncnc2-c2cccc(Cl)c2Cl)sc2c1CCCCC2	-4.32%
Cc1ccc(S(=O)(=O)Nc2c(O)oc3ccccc3c2=O)c(C)c1	-0.0709%
COc1ccc(C(=O)C2=C(O)C(=O)N(Cc3cccnc3)C2c2ccc(C)cc2)cc1 (stereo not drawn)	0.487%
CCOC(=O)C1=CN(C(C)C)C=C(C(=O)OCC)C1c1ccc(OC)c(OC)c1OC	-1.69%
Cn1c(=O)n(C)c2cc(/C=C3/SC(=O)N(CC(=O)N4CCCCC4)C3=O)ccc21	10.8%
CC1(C)CC(O)=C(C(=S)Nc2ccccc2)/C(=N/C2CC(C)(C)NC(C)(C)C2)C1	1.37%
CN(C)CCNC(=O)Cn1nc(Cc2cccnc2)c2ccccc2c1=O	-2.92%
COC(=O)c1ccc(-c2ccco2)n1CC(=O)NCc1ccc(OC)cc1	2.86%
CC(=O)N1N=C(c2ccccc2)OC1(C)C12CC3CC(CC(C3)C1)C2 (stereo not drawn)	-0.0678%
O=C(Cn1c2ccccc2c2cnnc(O)c21)NC1CCN(Cc2ccccc2)CC1	1.38%
COc1cc2c(cc1OC)C(O)C(C)(C)N(CCC(c1ccccc1)c1ccccc1)C2 (stereo not drawn)	-6.29%
OC1=C2C(=Nc3nc(-c4cccc(O)c4)nn3C2c2ccccc2Cl)CCC1 (stereo not drawn)	3.59%
O=c1c2ccccc2nc(Cc2ccccc2)n1-c1ccccc1O	0.812%

Compound	% Inhibition @ 10 uM
CN(Cc1ccccc1)Cc1ccco1	-7.93%
COc1cc(/C=C2\S/C(=N/c3ccc(Cl)c(C(=O)O)c3)N(C)C2=O)cc(OC)c1OC	3.83%
O=C(Nc1cccc(C(F)(F)F)c1)c1ccc([N+](=O)[O-])o1	1.9%
O=C(Nc1ccc(F)cc1)c1cccc(Br)c1	7.65%
CC(=O)c1ccc(C(=O)N(CCN(C)C)c2nc3c(Cl)cccc3s2)cc1	0.693%
O=C(O)CCCCc1cc2c(s1)CCCC(=O)N2	2.33%
O=C(O)CCSc1nc2c(cnn2-c2ccccc2)c(=O)n1-c1ccccc1	2.32%
CCC(C(=O)Nc1nc2nccc(C)n2n1)c1ccccc1 (stereo not drawn)	-1.31%
NC1=NC(=O)/C(=C/c2cn(CCC(=O)O)nc2-c2ccc(F)cc2)S1	2.46%
COc1ccc(CN2CCN(Cc3ccccc3C)CC2)cc1OC	-0.251%
Cc1ccc(-c2cn3c(n2)sc2cc(C(=O)NCCCN4CCOCC4)ccc23)cc1	5.11%
Cc1ccccc1-n1nc2c(c1NC(=O)CCC1CCCCC1)CS(=O)(=O)C2	3.37%
COc1ccccc1N1CCN(S(=O)(=O)c2ccc(C(C)(C)C)cc2)CC1	-17.2%
COCCCNC(=O)c1cc(-c2ccc(F)cc2)[nH]c1C	3.64%
CCOc1ccc(C2CC(=O)Nc3c2c(=O)nc(SCc2ccc(C)cc2)n3C)cc1OC (stereo not drawn)	-1.11%
Cc1cc(-c2cccc([N+](=O)[O-])c2)nc2ccc3ccccc3c12	-2.47%
CC(C)Oc1ccccc1NC(=O)CSCC(=O)Nc1ccc2ccccc2c1	-2.07%
COc1cc(C(=O)NC2=NC(=O)CC(c3ccccc3Cl)N2)cc(OC)c1OC (stereo not drawn)	-7.18%
CCOc1ccc(NC(=O)c2ccc(Br)cc2)cc1	-2%
CC1CCCCN1C(=O)Cn1ncc2c1-c1ccccc1OC2 (stereo not drawn)	-1.66%
CN1CCN(C(=O)C(Sc2ccccc2)c2ccccc2)CC1 (stereo not drawn)	1.64%
COc1ccc(OC)c(NC(=O)CN(c2ccc(C(C)C)cc2)S(C)(=O)=O)c1	-10.8%
COc1ccc(C2CC(c3c(F)cccc3Cl)n3nnnc3N2)cc1 (stereo not drawn)	3.32%
CC1(C)CC2=Nc3nc(-c4ccccc4)nn3C(c3ccc(F)cc3)C2=C(O)C1 (stereo not drawn)	0.674%
CCOC(=O)c1cnc2c(C(F)(F)F)cccc2c1N1CCN(C)CC1	-0.169%

Compound	% Inhibition @ 10 uM
COCC(C)NC(=O)c1onc(C)c1Cl (stereo not drawn)	-9.31%
COc1cc(CNC(C)(C)CO)cc(Cl)c1OCC(N)=O	-4.93%
Cc1ccccc1CNc1nc2ccccc2n1C	6.31%
Cc1cc(O)c(NC(=O)c2ccccc2Cl)cc1C	-2.44%
CC(C)NC(=O)C1CCCN(c2nn3cc(-c4ccc(F)cc4)nc3s2)C1 (stereo not drawn)	5.38%
COc1ccc(OC)c(-c2nnc3n(Cc4ccc(F)cc4)c(=O)c4ccccc4n23)c1	-1.72%
CC1=C(C)CC2C(=O)N(c3cccc(C(=O)O)c3)C(=O)C2C1 (stereo not drawn)	7.35%
CNC(=O)C1CCCN(c2nnc(-n3c(C)ccc3C)s2)C1 (stereo not drawn)	-0.637%
COc1ccc(-c2cc(C(=O)N3CCCCC3)c3c(-c4ccc(F)cc4)[nH]nc3n2)cc1OC	1.37%
COc1ccc(S(=O)(=O)Nc2ccc(N3CCOCC3)cc2)cc1	-1.05%
CCOC(=O)C1=C(C)N(C)C(C)=C(C(=O)OCC)C1c1ccccc1F	-3.44%
Cc1cccc(CC(=O)NCCn2ccc3ccccc32)c1	-2.87%
N#CCNC(=O)C(Cc1cccc(Br)c1)CS(=O)(=O)Cc1ccccc1 (stereo not drawn)	-1.83%
NS(=O)(=O)c1ccc(CCNC(=O)CCc2nc(O)c3c4c(sc3n2)CCCC4)cc1	-3.27%
C=CCSC1=C(C#N)C2(CCCC2)C(C#N)C(=O)N1 (stereo not drawn)	-0.736%
CCOC(=O)N1CCN(C(=O)c2ccc3c(Cl)c4c(nc3c2)CCCC4)CC1	-2.45%
CC(=O)N1CCN(CC/N=C/C2=C(O)CC(c3ccco3)CC2=O)CC1 (stereo not drawn)	0.121%
COC(=O)c1c(-c2ccc(C)cc2)csc1N	10.2%
COc1cc(SC)ccc1C(=O)N1CCCCCC1	-2.15%
CCN(CC)CCNc1nc2cc(Cl)ccc2[nH]1	4.88%
O=[N+]([O-])c1ccccc1S(=O)(=O)N1CCCC1	6.31%
CN(Cc1ccccc1)C(=O)c1ccc(CNS(=O)(=O)c2ccc(Br)cc2)cc1	-7.16%
Cc1cccc(CCNC(=O)c2nn(C)c3c2CS(=O)(=O)c2ccccc2-3)c1	5.82%
O=C(Nc1ccc(Cl)cc1)Nc1cccc(C(F)(F)F)c1	-4.01%
CCOC(=O)c1cc(C)n(CC2CCC(C(=O)NCc3cccnc3)CC2)c1C (stereo not drawn)	-0.241%

Compound	% Inhibition @ 10 uM
O=C(NCc1ccco1)C1CCN(S(=O)(=O)c2ccc(Cl)cc2)CC1	2.38%
Cc1ccc2[nH]c3c(c2c1)CCc1nc(O)c(C#N)cc1-3	2.86%
O=C(O)c1cccc(NS(=O)(=O)c2ccc(S(=O)(=O)N3CCOCC3)cc2)c1	-3.39%
O=S(=O)(c1ccccc1)N(C1CCCC1)C1CCCC1	2.23%
CC[C@H](NC(=O)[C@H](CC1(C)CCCC1)/N=C(\C)NS(=O)(=O)c1ccccc1)C(=O)c1nc2ccccc2o1	-8.36%
Cc1nc2ncnn2c(C)c1CCC(=O)N1CCc2ccccc2C1	4.54%
CCOC(=O)/C(C#N)=C\c1c2ccccc2cc2ccccc12	2.76%
CC(=O)c1c(S)nc(-c2ccccc2)nc1N1CCN(C)CC1	2.05%
CCOC(=O)Cn1c(=O)sc2ccccc21	0.135%
CN(C)CCCNC(=O)c1cc2ccccc2oc1=O	-3.53%
CNC(=O)c1sc2nc(-c3ccccc3)cn2c1C	3.19%
O=C(CCc1c[nH]c2ccccc12)NCc1ccco1	1.92%
CCn1cc(C=O)c2cc(S(=O)(=O)N3CCOCC3)ccc21	2.5%
c1ccc2c3c([nH]c2c1)CCCCC3	-1.44%
Oc1ccnc2c1ccc1nsnc12	4.12%
Cn1c(=O)[nH]c(=O)c2c1nc(N1CCNCC1)n2CCCc1ccccc1	-6.22%
Cc1cccc2sc(N(CCCN(C)C)C(=O)c3ccc(S(=O)(=O)N(C)C)cc3)nc12	-0.0255%
Cc1nnc(NC(=O)CSc2nc3c(c(=O)n2Cc2ccccc2)SCC3)s1	9.4%
COC(=O)C1=C(C)N(Cc2ccccc2)C(=O)C1(NC(=O)c1ccc(C(C)(C)C)cc1)C(F)(F)F (stereo not drawn)	0.221%
O=C1C2C3C=CC(CC3)C2C(=O)N1c1cccc(Br)c1 (stereo not drawn)	-5.13%
Cc1c(C(=O)NCCN(C)C)oc2ccc3c(c12)C(=O)CC(C)(c1ccc(Cl)cc1)O3 (stereo not drawn)	1.22%
Cc1ccccc1S(=O)(=O)NC(=O)NS(=O)(=O)c1ccccc1Cl	0.716%
N/C(=N\N=C\c1ccccc1O)c1nonc1N	1.91%
CC1CC2(CC(C)N(C)CC2C)Nc2ccccc21 (stereo not drawn)	5.48%

Source: article PMC6919601, “Identification of Plasmodium dipeptidyl aminopeptidase allosteric inhibitors by high throughput screening” (PLoS ONE, 2019)
